Assay results: PubChem BioAssay AID686978 (National Center for Advancing Translational Sciences (NCATS), 2013)
Where “and” joins values, the source holds several entries; their conditions need not be identical. Equal values may be shown once. Out of some 420,000 compounds screened, about 64,000 (15%) were called active. Inconclusive means that the source gave no clear call. Such entries were picked first, then a sample of the others. Calls follow the shape of the dose curve; as a rule, active = well fitted inhibition curve with a large enough effect; inconclusive = small, poorly fitted or top-dose-only effect; inactive = flat fitted curve, though single readings scatter. Potencies beside an inconclusive call are fits to weak or partial responses and may not hold up.

Assay: qHTS for Inhibitors of human tyrosyl-DNA phosphodiesterase 1 (TDP1): qHTS in cells in absence of CPT; also: nearly all actives have a fitted effect of over 55% in size
Conditions: DT40 Tdp1-/- hTDP1 cells, no CPT, ATP luminescence, 48 h; activity change, negative = growth inhibition: at 46.2 µM (top of the series) unless noted
In short: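 Chicken DT40 Tdp1-/- cells complemented with human TDP1, screened without camptothecin (DMSO vehicle only), 400 cells/well. Compounds pin-transferred, cells incubated at 37 °C for at least 48 hr. Growth read as ATP-dependent luminescence (CellTiter-Glo, 30 min at RT).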
% is scaled to controls: 0 for no effect and ±100 for the full control effect; potency is read from the fitted curve at half-maximal effect; tags tell the direction and shape of the fitted curve.

SMILES | Potency | activity change, negative = growth inhibition
CCC(C)c1ccccc1N1CC(C(=O)Nc2ccc(C)c(S(=O)(=O)N3CCOCC3)c2)CC1=O (stereo not drawn) | inconclusive: 25.9 µM [inhibitor, single point] | –
O=C(Nc1ccc(Br)cc1)c1cccn1-c1ncc(C(F)(F)F)cc1Cl | inconclusive: 20 µM [inhibitor, partial curve] | –
COc1ccccc1CCN1COc2c(cc3c(C)c(C)c(=O)oc3c2C)C1 | inconclusive: 23.1 µM [inhibitor, single point] | –
C[C@@H](CN1C(=O)C(=O)NC[C@@H]1C)NC(=O)CC12CC3CC(CC(C3)C1)C2 | – | inactive: -0.121%
O=C1c2cc(N3CCCC3)c([N+](=O)[O-])cc2C(=O)N1c1ccccc1 | – | inactive: -14.1%
Cc1cc(C)nc(SCc2nnc(SCc3ccc([N+](=O)[O-])cc3)n2Cc2ccco2)n1 | inconclusive: 16.4 µM [inhibitor, partial curve] | –
CC(C)c1ccc(NC(=O)CN(C)C2=NS(=O)(=O)c3ccccc32)cc1 | inconclusive: 18.4 µM [inhibitor, single point] | –
O=C(CCC(=O)N/N=C/c1cc(Cl)cc(Cl)c1O)NCc1ccccc1 | active: 23.1 µM | –
O=C(NC1CCCCCC1)C1c2ccccc2C(=O)N1Cc1ccc(F)cc1 (stereo not drawn) | – | inactive: -24.2%
Cc1ccccc1OCCCCN1CCCCC1 | inconclusive: 13 µM [inhibitor, partial curve, poor fit] | –
COc1ccc(N(C)S(=O)(=O)c2cccc(C(=O)NCC(c3ccco3)N3CCCC3)c2)cc1 (stereo not drawn) | inconclusive: 29.1 µM [inhibitor, single point] | –
CN(C)Cc1nc2ccccc2c(=O)n1Cc1nc(-c2cccc([N+](=O)[O-])c2)cs1 | active: 6.51 µM | –
Cc1ccc(C(O)P(=O)(OCCC(C)C)c2ccc(N(C)C)cc2)cc1 (stereo not drawn) | – | inactive: -17.2%
COc1ccc(N2CCN(C(c3nnnn3CCc3ccccc3)C(C)C)CC2)cc1 (stereo not drawn) | active: 18.4 µM | –
CCOc1cc(C2NC(=O)NC(C)=C2C(=O)OCC2CCCCC2)ccc1O (stereo not drawn) | inconclusive: 29.1 µM [inhibitor, single point] | –
C/C(=N\N=C1\NC(=O)C(Cc2ccccc2)S1)c1ccccc1 (stereo not drawn) | inconclusive: 6.51 µM [inhibitor, single point] | –
S=C(Nc1ccccc1)N1N=C(c2cccs2)CC1c1cccs1 (stereo not drawn) | inconclusive: 29.1 µM [inhibitor, single point] | –
COC(=O)/C=C\C(=O)Nc1cccc([N+](=O)[O-])c1 | active: 2.06 µM | –
CCc1cccc(NC(=O)Cn2c(=O)n(CCC(=O)NCc3ccccc3Cl)c(=O)c3sccc32)c1 | inconclusive: 29.1 µM [inhibitor, single point] | –
CCOc1ccc2c(c1)C(C)=CC(C)(C)N2 | inactive and inconclusive: 29.9 µM [inhibitor, partial curve, poor fit] | –
COc1ccc2sc(-c3ccccc3OC)c(C#CC(C)(C)O)c2c1 | inconclusive: 13 µM [inhibitor, partial curve] | –
COc1ccccc1N=NC1C(=O)N(C(N)=S)N=C1C (stereo not drawn) | inconclusive: 9.2 µM [inhibitor, partial curve] | –

SMILES | Potency | activity change, negative = growth inhibition
CCN(CC)CCCNC(=O)CSc1nc2c(c(C(F)(F)F)n1)CCc1ccccc1-2 | – | inconclusive: -30.3% [inhibitor]
Cc1csc(SCCn2c(N3CCCC3)nc3c2c(=O)[nH]c(=O)n3C)n1 | inconclusive: 0.461 µM [inhibitor, full curve, poor fit] | –
COc1cccc(NC(=O)CSc2nnc(NC(=O)C3CCC3)s2)c1 | inconclusive: 18.4 µM [inhibitor, single point] | –
CC(=O)c1cccc(OCc2cc(C(=O)NCc3nc(C)c(C)s3)no2)c1 | inconclusive: 16.4 µM [inhibitor, single point] | –
O=C(C1CCC(CNc2c(N3CCCCC3)c(=O)c2=O)CC1)N1CCCCC1 (stereo not drawn) | – | inactive: -15.4%
CS(=O)(=O)c1ccc(Sc2nc3ccccc3s2)c([N+](=O)[O-])c1 | active: 13 µM | –
COC(=O)/C=C/c1ccc2c(c1)S(=O)(=O)N(c1cccc(OC)c1)[C@H]2CC(=O)OC | inconclusive: 20 µM [inhibitor, single point] and inconclusive: 23.1 µM [inhibitor, single point] | –
O=C(C1CCN(S(=O)(=O)c2ccc(F)cc2)CC1)N1CCCC(C(F)(F)F)C1 (stereo not drawn) | – | inactive: -25.2%
CCn1c2ccccc2c2cc(NC(=O)COC(=O)c3ccccc3Br)ccc21 | inconclusive: 29.1 µM [inhibitor, single point] | –
COc1ccccc1NC(=O)NC1(C(=O)N2CCC(C)CC2)CCCCC1 | – | inactive: -2.53%
COc1ccc(N/C(=C/[N+](=O)[O-])SC)cc1 | – | inactive: -10.3%
COc1cc2c(cc1OC)C(c1ccccc1OC(C)C)CC(=O)N2 (stereo not drawn) | active: 14.6 µM | –
O=C(COC(=O)/C=C/c1ccccc1)NC1CCCC1 | – | inactive: -25.9%
Cc1ccc(C(=O)NC(=S)Nc2nc(-c3cccc([N+](=O)[O-])c3)cs2)c(Cl)c1 | inconclusive: 23.1 µM [inhibitor, single point] | –
O=C(O)c1ccc(CSc2nnc(-c3cccnc3)n2-c2ccc(Br)cc2)cc1 | – | inactive: -11.3%
Cc1cc(C)n(-c2nc3c(c(=O)[nH]c(=O)n3C)n2Cc2cccc(Br)c2)n1 | inconclusive: 29.1 µM [inhibitor, single point] | –
Nc1c(C(=O)Nc2cccc(F)c2)nnn1-c1cccc(C(F)(F)F)c1 | inconclusive: 16.4 µM [inhibitor, single point] and inconclusive: 259 nM [inhibitor, full curve, poor fit] | –
COc1ccc(-c2nc(-c3ccccc3)ncc2S(C)(=O)=O)cc1 | inconclusive: 23.1 µM [inhibitor, single point] | –
O=C(Nc1cccc(F)c1)N1CC=C(c2ccc(Cl)cc2)CC1 | inconclusive: 16.4 µM [inhibitor, partial curve] | –
Cc1nc2sccn2c(=O)c1S(=O)(=O)N1CCN(c2ccccc2)CC1 | – | inactive: -12.8%
Cc1cc(C)cc(NC(=O)c2sc3nc4n(c(=O)c3c2C)N=C(c2ccccc2)CS4)c1 | inconclusive: 16.4 µM [inhibitor, partial curve, poor fit] | –
